The values that follow come from the supplement of paper PMC11417369.

This is one part of the list.

This assay has as its system PfSIP2 AP2 domain 1 (GST-tagged). The assay can be described thus: gcPBM binding intensity (ln(normalized median fluorescence intensity)); higher = stronger DNA binding. In outline: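 Binding intensity is defined as the maximum Masliner-normalised natural-log median intensity across replicate spots for either probe orientation. It was measured on an Agilent 4 × 180k array of primer-extended double-stranded 36-bp intergenic genomic probes and negative controls, to which GST-tagged P. falciparum DNA-binding domains made in E. coli were applied for 1 h in 1× PBS with 1% milk, 0.2 mg/ml BSA, 0.5% salmon testes DNA and 0.03% Triton X-100. Detection was by Alexa488 anti-GST antibody and scanning at 488 nm.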
Consider “TTATTTAACGTATTCTCACACATATATATATATAAT [CACACA_site5226]”, for which the “gcPBM binding intensity (ln)” value came to 7.22.

Turning to “TCTTTAATGATGTGTACACAAGAAAACATTGTTAAG [CACACA_site5299]”, the “gcPBM binding intensity (ln)” value was 7.13.

As for “TAGAAGCATCATTTTACACACATGCAAATGTAAAAT [CACACA_site1893]”, the “gcPBM binding intensity (ln)” value worked out at 6.77.

As to “AAAAATAAGAGCGTAGCACACACGCATTTTATAAAT [CACACA_site8147]”, the “gcPBM binding intensity (ln)” value amounted to 6.67.

As to “TTATTGAACTTTTATAAAACCTGTATTATTATCTCT [CACACA_negctrl_site767]”, the “gcPBM binding intensity (ln)” value stood at 6.9.

For the sequence “TTATATTAATAATAAAGTACAAAAAATCATATATAA [XGTACX_site799]”, the “gcPBM binding intensity (ln)” value is 7.07.

Take “TATTTCTTATTACATACACACATATACATATATGAC [CACACA_site3201]”: the “gcPBM binding intensity (ln)” value was determined as 7.17.

In the case of “TCCAGGCTACACTCTAGTACTCGTAGGGTTATGAGA [XGTACX_site4945]”, the “gcPBM binding intensity (ln)” value came out at 6.7.

For “ATATATATATATATATGTACATATGTTAGGATCAAA [XGTACX_site8626]”, the “gcPBM binding intensity (ln)” value was determined as 9.42.

Regarding “ATGACATATAAATATACACACATACGTAAGTATATT [CACACA_site5058]”, the “gcPBM binding intensity (ln)” value amounted to 6.93.

As to “GTGGAATAATATATATGTACATATTTAAAATATTTA [XGTACX_site3499]”, the “gcPBM binding intensity (ln)” value was found to be 7.05.

Take “AATGGTCTTTTCAACACACGTACATAAAAATATTAT [CACACA_site2571]”: the “gcPBM binding intensity (ln)” value worked out at 7.52.

“TAAAAGTATATATATACACACATAAATATATCTGTA [CACACA_site4537]”: the “gcPBM binding intensity (ln)” value came out at 7.

On to “TGACAACATAGAGGGGCACACACATATATACATAAA [CACACA_site8550]”, for which the “gcPBM binding intensity (ln)” value stood at 7.54.

On to “ATTTTTTTACAAAAATGTACACATGAAATATGTAAT [XGTACX_site1372]”, for which the “gcPBM binding intensity (ln)” value came to 7.28.

As to “TATTATTTTAGAATGCGTACTTATAAAATATTTTAT [XGTACX_site867]”, the “gcPBM binding intensity (ln)” value is 6.97.

Take “TTAAATTATTAGAGAGTGCATTATATATATTATACA [GTGCAC_site9711]”: the “gcPBM binding intensity (ln)” value came out at 8.84.

In the case of “GTGTGATGGTCCAATATACACACTTAAAAAAAAAAA [CACACA_site2426]”, the “gcPBM binding intensity (ln)” value is 6.93.

With “TACTGTTATAAATGTGGTACTAATATTATACATATA [XGTACX_site5116]”, the “gcPBM binding intensity (ln)” value is 6.99.

For “TACATATATATATTATGTACATAAGGTTTGAGTTCA [XGTACX_site2726]”, the “gcPBM binding intensity (ln)” value is 7.11.

As to “GAAAAAAAAGCTTGCACACGTATTTGCTTTATGTAT [CACACA_site4931]”, the “gcPBM binding intensity (ln)” value is 6.93.

In the case of “TTTTTGGTATTATTGTGTACTTATAAATAATATAAT [XGTACX_site4019]”, the “gcPBM binding intensity (ln)” value came out at 7.4.

As for “ATATTTTGTAACTATACACACATATTTATATTATAA [CACACA_site7433]”, the “gcPBM binding intensity (ln)” value stood at 6.97.

In the case of “ATATATATAAATAATTGTACATAATAATAAAATATA [XGTACX_site4839]”, the “gcPBM binding intensity (ln)” value came out at 7.41.

As to “ATATAAAATATTACGTGTACACATAAATAAAAATAA [XGTACX_site3746]”, the “gcPBM binding intensity (ln)” value was 7.49.

Turning to “CAAGTAGATATTATACGTACATATATATATATATAT [XGTACX_site8349]”, the “gcPBM binding intensity (ln)” value worked out at 9.49.

As for “TTTTATACATATTTTACACACTAAAATATACCTATA [CACACA_site6286]”, the “gcPBM binding intensity (ln)” value turned out to be 7.26.

As for “TAAAAAATATACATTCGTACATATATATTATATATA [XGTACX_site7918]”, the “gcPBM binding intensity (ln)” value is 7.12.

Turning to “ATATATATATATATTACACACTTTTTCTTTTTTTTT [CACACA_site2780]”, the “gcPBM binding intensity (ln)” value was 9.47.

With “AATAAACATAAATAAAAATTATAAAATATATATATG [CACACA_negctrl_site1709]”, the “gcPBM binding intensity (ln)” value was found to be 6.97.

For “TTTACATTTCAGTAGACACACAAAAAATAATACTAA [CACACA_site512]”, the “gcPBM binding intensity (ln)” value worked out at 6.87.

On to “AAAAAAAAATATACATATATATATATATATATATAT [CACACA_negctrl_site1763]”, for which the “gcPBM binding intensity (ln)” value worked out at 9.37.

As for “CAAAAGTAAGCACGCACACACAACATGAAATAAAAT [CACACA_site165]”, the “gcPBM binding intensity (ln)” value is 7.16.

As to “TATACACTTATTGGTGGTACAATATATAAATATATG [XGTACX_site3289]”, the “gcPBM binding intensity (ln)” value is 7.19.

“TTTTGATCTGAAGGAACCTAAAAAGGGAAGAGAAAA [CACACA_negctrl_site1656]”: the “gcPBM binding intensity (ln)” value stood at 6.93.

On to “TATATATATATTTATACACACACATATATTTATATA [CACACA_site8054]”, for which the “gcPBM binding intensity (ln)” value is 8.55.

“ATTAGTATAATGTAACTTAGTTAATAGTGCTAATAT [CACACA_negctrl_site764]”: the “gcPBM binding intensity (ln)” value was 7.35.

“TATATTTATAACAACACACACAGATCATAAAACTGC [CACACA_site7086]”: the “gcPBM binding intensity (ln)” value worked out at 6.95.

Turning to “ACAAAATAAAACATCTGTACATATTATTATTATAAG [XGTACX_site4802]”, the “gcPBM binding intensity (ln)” value was found to be 6.9.

As to “AAAAAAAAAAAAAAAACACACACATGCACATCATAT [CACACA_site8083]”, the “gcPBM binding intensity (ln)” value came to 7.8.

As for “AAAAAAAACACGCGCACACACACACCCACCCACCGA [CACACA_site2206]”, the “gcPBM binding intensity (ln)” value was determined as 7.

With “CAATGTTAACATATTACACACATATGTATTTATAAC [CACACA_site7314]”, the “gcPBM binding intensity (ln)” value worked out at 7.12.

On to “TAAATATATAATAAATGTACATATTAATATTATGGT [XGTACX_site1498]”, for which the “gcPBM binding intensity (ln)” value worked out at 7.56.

On to “AAAAAAAATTTAATTGCACACAGGAAAATATAATTT [CACACA_site3810]”, for which the “gcPBM binding intensity (ln)” value was found to be 7.01.

As to “TAAATACAGAGGAAAATACACACGTATATATATAAA [CACACA_site3410]”, the “gcPBM binding intensity (ln)” value came out at 6.78.

For the sequence “TATAAATATACAAACACACATACAAACATATATATA [CACACA_site1120]”, the “gcPBM binding intensity (ln)” value amounted to 7.27.

Turning to “TTAATACCCAGACACACACACACAAAATAAAATACA [CACACA_site7968]”, the “gcPBM binding intensity (ln)” value was determined as 7.24.

Consider “TTTTTTTAATGATATTGTACATTAATAAAAAATATG [XGTACX_site1719]”, for which the “gcPBM binding intensity (ln)” value came out at 7.06.

As for “ATTTGATATATAATAATACACACTTACATAATTAAT [CACACA_site290]”, the “gcPBM binding intensity (ln)” value turned out to be 6.93.

“TCTTTTTCAAGATGACGTACTTAGATTAATATAAAA [XGTACX_site3931]”: the “gcPBM binding intensity (ln)” value amounted to 7.09.

On to “ATATGATCATTTTATCATTTTGCTTTTTCTTTTTTT [CACACA_negctrl_site1325]”, for which the “gcPBM binding intensity (ln)” value worked out at 6.54.

Turning to “ATCGTGTTAAATGTTGTGCACATATAAATTACAAAA [GTGCAC_site9822]”, the “gcPBM binding intensity (ln)” value is 9.42.

For “AATTTTGGAACGTGCACACATATGTAATATATATAT [CACACA_site3067]”, the “gcPBM binding intensity (ln)” value stood at 10.1.

Turning to “TTATATTCTTTTCTCTTTCTACTTTTTTTTTTTTTT [XGTACX_negctrl_site317]”, the “gcPBM binding intensity (ln)” value is 6.96.

Take “AAGAAAAACTTATATATATATATATATATATATATA [TGCATGCA_negctrl_site466]”: the “gcPBM binding intensity (ln)” value was 9.88.

Regarding “TCATACATGTATATGTGTACATATAATGTATATTCC [XGTACX_site6082]”, the “gcPBM binding intensity (ln)” value worked out at 7.08.
